In paper PMC4336329 (PLoS ONE, 2015):
About 2,200 (0.71%) of roughly 310,000 compounds showed an effect of 50% or more. Effects have a minus sign here. This is one part of the list. Where a SMILES comes first, the peptide text is derived from it. [ ]: non-standard residue; d: D form. The star is where a group is joined. ξ: configuration not given here. ξY = NC(Cc1ccc(O)cc1)C(=O)O; Cbz = O=C(OCc1ccccc1)*; OtBu = CC(C)(C)O*; tBu = CC(C)(C)*

What follows are compounds tested against human ether-à-go-go-related gene (hERG) potassium channel (human, UniProt Q12809) (assay: primary screen, population patch clamp on CHO cells stably expressing hERG).
human ether-à-go-go-related gene (hERG) potassium channel, sequence (Q12809 whole entry, looked up): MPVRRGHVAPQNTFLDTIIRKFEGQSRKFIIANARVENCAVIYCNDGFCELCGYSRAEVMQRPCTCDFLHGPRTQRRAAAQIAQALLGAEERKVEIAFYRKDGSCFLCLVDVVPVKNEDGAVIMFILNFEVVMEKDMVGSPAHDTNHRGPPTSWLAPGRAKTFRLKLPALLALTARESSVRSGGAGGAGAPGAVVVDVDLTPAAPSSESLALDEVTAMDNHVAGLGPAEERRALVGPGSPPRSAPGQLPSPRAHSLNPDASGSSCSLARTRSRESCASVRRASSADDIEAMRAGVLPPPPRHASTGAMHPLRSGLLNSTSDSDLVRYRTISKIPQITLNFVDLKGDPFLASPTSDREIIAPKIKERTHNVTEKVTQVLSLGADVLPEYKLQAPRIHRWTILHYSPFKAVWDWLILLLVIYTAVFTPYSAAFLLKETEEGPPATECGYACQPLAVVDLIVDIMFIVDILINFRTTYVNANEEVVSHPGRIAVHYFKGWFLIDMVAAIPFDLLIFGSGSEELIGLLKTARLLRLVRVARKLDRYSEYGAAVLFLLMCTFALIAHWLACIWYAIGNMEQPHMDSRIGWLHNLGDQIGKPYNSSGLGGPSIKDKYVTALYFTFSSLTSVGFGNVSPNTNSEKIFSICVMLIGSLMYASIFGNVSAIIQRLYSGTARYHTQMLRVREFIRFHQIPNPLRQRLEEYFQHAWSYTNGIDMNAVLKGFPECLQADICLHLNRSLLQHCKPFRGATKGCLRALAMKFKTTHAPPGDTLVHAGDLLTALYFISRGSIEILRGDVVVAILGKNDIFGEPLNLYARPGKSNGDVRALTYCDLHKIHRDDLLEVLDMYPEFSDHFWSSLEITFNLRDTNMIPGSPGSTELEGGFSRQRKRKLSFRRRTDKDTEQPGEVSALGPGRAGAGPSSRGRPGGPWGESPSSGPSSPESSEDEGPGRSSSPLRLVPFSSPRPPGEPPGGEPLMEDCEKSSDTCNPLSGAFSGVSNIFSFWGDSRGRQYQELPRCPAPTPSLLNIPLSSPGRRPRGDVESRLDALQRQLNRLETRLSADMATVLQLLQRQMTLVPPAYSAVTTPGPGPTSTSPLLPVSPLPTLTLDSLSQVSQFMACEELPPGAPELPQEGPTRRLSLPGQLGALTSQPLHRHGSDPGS

SMILES	hERG current change (%, negative = inhibition) at 1uM
O=c1c2ccccc2c(C=Nc2cccc(O)c2)c(O)n1-c1ccc2c(c1)OCO2	14.1%
COc1cc(/C=C/C(=O)OC(C)C(=O)c2ccccc2)cc(OC)c1OC (stereo not drawn)	3.82%
COc1ccc(N(CC(=O)NCCC2=CCCCC2)S(C)(=O)=O)cc1	-7.54%
CSc1ccccc1C(=O)N1CCN(c2cccc(Cl)c2)CC1	12.9%
COc1cc(C(=O)NCc2ccc(S(N)(=O)=O)cc2)ccc1OCC(=O)Nc1cccc(C(F)(F)F)c1	8.44%
CCOC(=O)C1=C(C)NC(C)=C(C(=O)OCC)C1C(=O)OCC(=O)NC	5.88%
COc1cc([N+](=O)[O-])c(OC)cc1SCc1n[nH]c(=S)n1-c1ccc(F)cc1	7.12%
CCN(CC)CCOC(=O)C(c1ccccc1)c1ccccc1.Cl	-34.9%
COc1ccc(CCN(Cc2cc3cccc(C)c3[nH]c2=O)C(=O)NC2CCCCC2)cc1OC	-7.49%
O=C(/C=C/c1ccc(Cl)cc1)N(Cc1cccs1)C1CCS(=O)(=O)C1 (stereo not drawn)	-3.56%
CCCCn1c(=O)c(-c2ccccc2)c(O)c2ccccc21	16.3%
CCCCn1nnnc1SCC(=O)Nc1sc2c(c1C#N)CCCC2	8.26%
N#Cc1cc(-c2ccc(Cl)cc2)cnc1Sc1ccc(F)cc1	7.98%
CN(C(=O)c1ccc(NC(=O)Cc2ccc(NC(=O)C3CCN(C(=O)C4CCCCC4)CC3)cc2)cc1)C1CC1	16.9%
CC1Cc2nc(SCC(=O)N3CCN(c4ccccc4)CC3)n(CCc3ccccc3)c(=O)c2S1 (stereo not drawn)	2.07%
Cc1ccc(Cl)cc1NC(C#N)c1ccccc1 (stereo not drawn)	9.71%
O=C(NCCN1CCN(C(=O)c2cccc(Br)c2)CC1)C(=O)Nc1ccc(Br)cc1	-3.77%
Cc1ccc(O)c(C(=O)CC(=O)c2ccc(C(C)(C)C)cc2)c1	12.6%
CN(C)CCOc1ccc2c(c1)Sc1ccccc1CC2=O.Cl	-18.3%
CC1CCN(C(c2cc3cc4c(cc3[nH]c2=O)OCO4)c2nnnn2CC2CCCO2)CC1 (stereo not drawn)	-3.76%
CCSc1nnc(NC(=O)C2CC=CCC2C(=O)O)s1 (stereo not drawn)	6.79%

SMILES	hERG current change (%, negative = inhibition) at 1uM
CC1(C)CC(=O)C2=C(C1)OC(N)=C(C#N)C2c1cn(-c2ccccc2)nc1-c1ccc(F)cc1 (stereo not drawn)	-4.2%
CCn1c(SCC(=O)N2CCN(c3cccc(Cl)c3)CC2)nc2ccccc2c1=O	3.76%
CN(CC(=O)O/N=C(\N)c1ccccn1)S(=O)(=O)c1cc(Cl)ccc1Cl	5.03%
CC1(C)[C@H]2CC[C@]1(C)[C@@H](OC(=O)C[N+]1(C)CCOCC1)C2.[I-]	15.5%
COc1ccc(C(=O)OCCc2cc3ccccc3c(=O)o2)cc1	11.4%
CC(C)(C)c1ccc(/C=C/C(=O)Nc2ncccn2)cc1	17.1%
Cc1cc(OCC(=O)OCC(=O)NCC2CCCO2)ccc1Cl (stereo not drawn)	11.4%
O=C(CNS(=O)(=O)c1ccc(Br)s1)Nc1ccc2c(c1)OCCO2	4.22%
COc1ccc(OC)c(C2CC(=O)N3CN(c4ccccc4F)CSC3=C2C#N)c1 (stereo not drawn)	12.9%
COc1ccc(CCC(=O)Nc2ccc(Cl)c(S(=O)(=O)N3CCCC3)c2)cc1	-3.3%
COc1ccc(CC(=O)N2CCN=C2SC)cc1OC	4.01%
Cc1cc(NC(=O)CCCN2C(=O)c3cccc4cccc(c34)C2=O)no1	4.02%
CCN(CC)S(=O)(=O)c1ccc(NC(=O)C2CCCO2)cc1 (stereo not drawn)	16.3%
COc1cccc(OC)c1-c1nn2c(-c3ccccc3Cl)nnc2s1	5.33%
COc1ccc(Cl)cc1NC(=O)C(C)N(C)Cc1ccc(C(F)(F)F)cc1 (stereo not drawn)	12.2%
COCCNC(=O)c1ccc(N2CC3CC(C2)c2cccc(=O)n2C3)c(NC(=O)c2ccc(Br)o2)c1 (stereo not drawn)	10.5%
Cc1cccc(N2C(=O)N3[C@H](c4ccc(F)cc4)[C@@H]4C(=O)N(C5CCCCC5)C(=O)[C@@H]4[C@]3(Cc3ccccc3)C2=O)c1	11.6%
CCOC(=O)Cc1csc(NC(=O)CSc2ncnc3c2cnn3-c2ccc(OC)cc2)n1	4.2%
Cc1cc(C)n(CCSCC(=O)O)n1	20.6%
COc1ccccc1Nc1nnc(SCc2cc(=O)n3cc(C)ccc3n2)s1	15.1%
Cc1occc1-c1nnc(SCc2nc3ccccc3c(=O)n2CC#N)n1C	-19.7%

SMILES	hERG current change (%, negative = inhibition) at 1uM
O=c1oc(-c2ccco2)nc2ccccc12	10.1%
O=C(c1nc2ccc(Cl)cn2c1CN1CCCC1)N1CCc2ccccc2C1	7.74%
CN(C#N)c1nc(Cl)nc(Nc2cccc(Cl)c2)n1	-7.06%
CCc1cccc(CC)c1C(OC(C)=O)c1cccnc1 (stereo not drawn)	13.7%
O=C(CN(CC1CCCO1)C(=O)CNS(=O)(=O)c1ccccc1)NCc1ccco1 (stereo not drawn)	17.5%
COc1ccc(NC(=O)CN2CCN(C3c4ccccc4-c4ccccc43)CC2)c(OC)c1	-4.97%
COc1cc(S(=O)(=O)Nc2cccc(C(=O)O)c2)c(OC)cc1Cl	8.43%
COc1ccc(OC)c(NC(=S)NCc2ccccc2OC)c1	10.7%
Cn1c(Cc2nc(-c3cnccn3)no2)nnc1SCC(=O)Nc1ccccc1	3.09%
CSc1ccccc1NC(=O)CN(C)C(=O)c1ccc(NC(=O)c2cccs2)cc1	14.6%
Nc1ccc(Cl)c[n+]1Cc1cccc2cccnc12.[Br-]	-3.72%
CCOC(=O)C1CCN(C(=O)c2cc3cc(F)ccc3[nH]2)CC1	-6.63%
CC(C)(C)OC(=O)C(Cc1ccc(OC(C)(C)C)cc1)NC(=O)CNC(=O)CNC(=O)OCc1ccccc1 (stereo not drawn) (Cbz-Gly-Gly-[ξY](tBu)-OtBu)	6.26%
O=C(NC(=S)Nc1cc(Cl)ccc1N1CCOCC1)c1ccccc1[N+](=O)[O-]	11.6%
COc1ccc(C(=O)N/N=C\c2ccoc2)cc1	13%
CCOC(=O)c1cn2nc(Oc3cccc(F)c3)ccc2n1	10.4%
O=C(Oc1cccnc1)c1cc(S(=O)(=O)N2CCOCC2)ccc1Cl	7.31%
Cc1ccc(CN(C)C(=O)COC(=O)CSc2ccc(C(N)=O)cc2[N+](=O)[O-])cc1	16%
COc1ccc(CC(=O)OCC(=O)Nc2ncc(Cl)cc2Cl)cc1OC	11.8%
CC1CCc2c(c3ccccc3[nH]c2=O)O1 (stereo not drawn)	6.57%
COc1ccc(NC(=O)c2nc3nc(C)cc(C(F)F)n3n2)cc1OC	9.25%

SMILES	hERG current change (%, negative = inhibition) at 1uM
CCOc1cc(C)c(S(=O)(=O)N2CCCC2)cc1C	14.8%
Br.Cc1ccccc1Cn1c(=N)n(CC(=O)c2ccco2)c2ccccc21	-28.9%
COc1ccc(C(C(=O)NC2CCCCC2)N(C(=O)CCl)c2ccc(C)cc2)cc1 (stereo not drawn)	5.58%
Oc1c(Br)cccc1/C=N/Nc1c(F)c(F)c(F)c(F)c1F	3.82%
CCCCC(=O)Nc1cc(-c2nc3ncccc3o2)ccc1C	8.43%
COc1cccc(-c2nnc3sc(-c4ccco4)nn23)c1	20.1%
Cn1c(=O)c2c(nc(SC3C(=O)CC(C)(C)CC3=O)n2C)n(C)c1=O	10.7%
Cc1c(NC(=O)CN2CCN(c3ccc([N+](=O)[O-])cc3)CC2)c(=O)n(-c2ccccc2)n1C	-12.7%
O=C(O)c1cccc(NC(=O)c2ccc(N3C(=O)c4ccc(C(=O)Nc5cccc(C(=O)O)c5)cc4C3=O)cc2)c1	4.74%
COc1ccc(NC(=O)c2cccc(N3C(=O)C4C5C=CC(C5)C4C3=O)c2)c(OC)c1 (stereo not drawn)	4.68%
Cc1occc1-c1nnc(SCC(=O)N2CCCCC2)o1	0.0698%
COc1cc(NS(=O)(=O)c2ccc(NC(=O)c3ccc([N+](=O)[O-])cc3)cc2)ncn1	10.2%
COc1cccc(-c2ccc(=O)n(CC(=O)Nc3cc4c(cc3NC(C)=O)OCCO4)n2)c1	4.84%
O=C1CC(C(=O)Nc2ccc(Cl)cc2)n2ncnc2N1 (stereo not drawn)	-4.3%
Cn1nnnc1SCCNC/C=C/c1ccccc1	-5.29%
O=C(COc1ccccc1)Nn1c(-c2ccccc2)nc2ccccc2c1=O	4.07%
O=C(Nc1cccc(-c2cn3c(n2)SCC3)c1)c1ccc(Br)o1	8.25%
Cc1ccc(NC(=O)C(C)N2C(=O)C3C4CC(C(Br)C4Br)C3C2=O)cc1 (stereo not drawn)	9.48%
O=C1Nc2ccc(Br)cc2C1(O)Cc1ccncc1 (stereo not drawn)	-4.91%
CC(=O)c1ccc(S(=O)(=O)NCc2ccc(C(=O)NCC(c3ccccc3)N(C)C)cc2)cc1 (stereo not drawn)	11.3%
CC(CNC(=O)CCC(=O)N1CCOc2ccccc21)c1ccccc1 (stereo not drawn)	7.67%
